# Assay results taken from the supplement of paper PMC4604168 (melanoma cell lines).
# The list shows a part of the results. Many values rest on one well or one pass, so single values are uncertain.
# How the values were obtained:
# Assay in all cases: cell count relative to DMSO control; melanoma cells; higher = more viable cells
# Conditions in all cases: library dose: low library concentration; 72 h
# [1] = tested on: COLO792
# [2] = tested on: COLO800
# [3] = tested on: COLO829
# [4] = tested on: G361
# [5] = tested on: IPC-298
# [6] = tested on: IST-MEL1
# [7] = tested on: LB2518-MEL
# [8] = tested on: LOXIMVI
# [9] = tested on: MEL-HO
# 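Also: cell number obtained by counting DAPI-stained nuclei in high-throughput microscope images with image analysis software, screen run in 1,536-well plates.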
SMILES,cell count [1] [%],cell count [2] [%],cell count [3] [%],cell count [4] [%],cell count [5] [%],cell count [6] [%],cell count [7] [%],cell count [8] [%],cell count [9] [%]
"CC[C@]1(O)C[C@H]2CN(CCc3c([nH]c4ccccc34)[C@@](C(=O)OC)(c3cc4c(cc3OC)N(C=O)[C@H]3[C@@](O)(C(=O)OC)[C@H](OC(C)=O)[C@]5(CC)C=CCN6CC[C@]43[C@@H]65)C2)C1 [vincristine] + Cn1cncc1[C@@](N)(c1ccc(Cl)cc1)c1ccc2c(c1)c(-c1cccc(Cl)c1)cc(=O)n2C [tipifarnib] (first compound 0.0001 µM, partner dose 0.01 µM)",85,88.2,61.8,89.8,90.6,95.5,77.8,129,85.5
"Cc1cc(Nc2cc(N3CCN(C)CC3)nc(Sc3ccc(NC(=O)C4CC4)cc3)n2)n[nH]1 [Tozasertib] + OCCn1cc(-c2cnc3nnn(Cc4ccc5ncccc5c4)c3n2)cn1 [PF04217903] (first compound 0.006 µM, partner dose 1 µM)",97.4,82.9,110,91.9,96.6,94.7,98.2,95.2,105
"N#CC[C@H](C1CCCC1)n1cc(-c2ncnc3[nH]ccc23)cn1 [ruxolitinib] + O=c1cc(-c2cccc3c2Sc2ccccc2S3)oc(N2CCOCC2)c1 [KU55933] (first compound 1 µM, partner dose 1 µM)",100,50.8,117,103,105,107,134,101,101
"CC[C@]1(O)C[C@H]2CN(CCc3c([nH]c4ccccc34)[C@@](C(=O)OC)(c3cc4c(cc3OC)N(C=O)[C@H]3[C@@](O)(C(=O)OC)[C@H](OC(C)=O)[C@]5(CC)C=CCN6CC[C@]43[C@@H]65)C2)C1 [vincristine] + O=c1cc(-c2cccc3c2Sc2ccccc2S3)oc(N2CCOCC2)c1 [KU55933] (first compound 0.0001 µM, partner dose 1 µM)",95.7,166,66.7,94.6,97.7,99.3,85.8,77.8,94.9
"N#CC[C@H](C1CCCC1)n1cc(-c2ncnc3[nH]ccc23)cn1 [ruxolitinib] + O=S(=O)(c1ccccc1)N(CC(F)(F)F)c1ccc(C(O)(C(F)(F)F)C(F)(F)F)cc1 [T0901317] (first compound 1 µM, partner dose 1.4 µM)",108,138,141,101,93.8,96.9,112,140,96.6
"Cc1cc(Nc2cc(N3CCN(C)CC3)nc(Sc3ccc(NC(=O)C4CC4)cc3)n2)n[nH]1 [Tozasertib] + COc1cc(Nc2ncc(F)c(Nc3ccc4c(n3)NC(=O)C(C)(C)O4)n2)cc(OC)c1OC [Tamatinib] (first compound 0.006 µM, partner dose 0.4 µM)",60.2,124,83,91.9,74.5,86.1,77.7,87.1,85.9
"N#CC[C@H](C1CCCC1)n1cc(-c2ncnc3[nH]ccc23)cn1 [ruxolitinib] + Cc1cc([N+](=O)[O-])ccc1NS(=O)(=O)c1cc(Cl)ccc1Cl [FH535] (first compound 1 µM, partner dose 1 µM)",95.8,79.2,111,87.6,95.2,97.8,125,88.1,89.4
"N#CC[C@H](C1CCCC1)n1cc(-c2ncnc3[nH]ccc23)cn1 [ruxolitinib] + CC(C)(C)c1cnc(CSc2cnc(NC(=O)C3CCNCC3)s2)o1 [SNS-032] (first compound 1 µM, partner dose 0.01 µM)",96.5,88.3,126,118,111,93.7,122,62.4,99
"CC[C@]1(O)C[C@H]2CN(CCc3c([nH]c4ccccc34)[C@@](C(=O)OC)(c3cc4c(cc3OC)N(C=O)[C@H]3[C@@](O)(C(=O)OC)[C@H](OC(C)=O)[C@]5(CC)C=CCN6CC[C@]43[C@@H]65)C2)C1 [vincristine] + CCN(CC)CCCCNc1ncc2cc(-c3cc(OC)cc(OC)c3)c(NC(=O)NC(C)(C)C)nc2n1 [PD173074] (first compound 0.0001 µM, partner dose 0.1 µM)",97.8,117,120,104,102,103,109,91.5,110
